Data on 42 sequences can be found in PMC7819943, “Rice protein-binding microarrays: a tool to detect cis-acting elements near promoter regions in rice”.

Some of the results follow.

The target in the experiment is T1, OsWOX13 (Oryza sativa, UniProt Q5QMM3 1-267).
T1 sequence: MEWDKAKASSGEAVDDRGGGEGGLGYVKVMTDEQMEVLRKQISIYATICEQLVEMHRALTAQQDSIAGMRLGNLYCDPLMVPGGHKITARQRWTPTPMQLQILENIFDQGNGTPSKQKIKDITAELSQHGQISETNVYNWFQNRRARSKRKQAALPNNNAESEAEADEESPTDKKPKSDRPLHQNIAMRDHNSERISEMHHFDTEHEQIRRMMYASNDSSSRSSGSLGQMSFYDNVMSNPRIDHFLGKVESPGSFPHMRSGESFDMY
Kind of experiment: protein-binding microarray (RPBM); PBS, 2% BSA, 51.3 ng/ul salmon testes DNA, 50 uM zinc acetate, 200 nM TF, 25 C, 1 h; high values mean tight binding. Conditions: protein: recombinant; tags: N-terminal polyhistidine and DsRed monomer fusion (pET32a); label: CyDye5-dUTP incorporated in the synthesized complementary strand; 3' TTTTT single-stranded linker to array surface; dsDNA, one strand shown. A digest of the protocol:
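Binding signal is defined as the fluorescence intensity of each feature in arbitrary units, read on an Axon 4000B scanner. Transcription factors with N-terminal polyhistidine and DsRed fusions came from E. coli BL21-CodonPlus and were purified on Ni–NTA. They were incubated at 200 nM for 1 h at 25 °C on a custom Agilent array that had been made double-stranded with Cy5-dUTP, with 50 µM zinc acetate present, and the array was washed.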
Regarding “AGGAAATGTGTGATTGGTTGATAAGTAAAAGTAGGTAAAGCGGAGTCACCTAGTGCAG”, the binding signal is 37800 fluorescence intensity (a.u.). With “GGACTGGTGATGGACAATCTCAAGATTTCCATATAAATGGCGGAGTCACCTAGTGCAG” the figure was 9840 fluorescence intensity (a.u.). In the case of “ACCATGATGGGCTCTAACTCTAAAGCCCATCAGACTCAAGCGGAGTCACCTAGTGCAG”, the binding signal is 4260 fluorescence intensity (a.u.). As for “TTGTGCACTTGTGATTGCTTGAGGTGTACTGCACATAAGACGGAGTCACCTAGTGCAG”, the figure is 3640 fluorescence intensity (a.u.). On to “AGGATAAAATTTCTGCAATTATTGGGGTACGGTCCACCTACGGAGTCACCTAGTGCAG”, for which the binding signal is 4490 fluorescence intensity (a.u.).

On to “TGCTGACAGATTCTAACACAGCCAACCATATGCAATGCAACGGAGTCACCTAGTGCAG”, for which the binding signal is 25300 fluorescence intensity (a.u.).

For “AGTTTTAGCCTAAATTGGGTAAATTATATTTTAACCGTAACGGAGTCACCTAGTGCAG”, the binding signal was 11600 fluorescence intensity (a.u.). As to “GGAGAGATTAAGGGAATAATTGCCCGGACACCTCTCGGTTCGGAGTCACCTAGTGCAG”, the binding signal was 5680 fluorescence intensity (a.u.). With “CTCTCTAAAATTAGTTTAATTATACTATAACTCGTATATACGGAGTCACCTAGTGCAG” the figure was 5850 fluorescence intensity (a.u.); with “CTTTCATGGTGATTTGCTCTTCTTGTTTGCATGCATGCACCGGAGTCACCTAGTGCAG”, 10800 fluorescence intensity (a.u.); with “TTGCAACAAAGTGAAATGCTAATTGGAACATTCATTTCTGCGGAGTCACCTAGTGCAG”, 3330 fluorescence intensity (a.u.). As for “TTTGGTTAATTACGCACCGGTCCCCGCTAATATCCGCCGTCGGAGTCACCTAGTGCAG”, the figure is 16300 fluorescence intensity (a.u.); as for “AAGACTAAAGGCTCAATTGATTGGACGGGAGATATGAAAACGGAGTCACCTAGTGCAG”, 9490 fluorescence intensity (a.u.). Turning to “CCAGCTGAGAAATTGATTGATGTATAGCACTCCGATCTTCCGGAGTCACCTAGTGCAG”, the binding signal was 21900 fluorescence intensity (a.u.). As for “TTGATAGGATTTCTTATATAGTACCAAAATTTAACAGCAACGGAGTCACCTAGTGCAG”, the figure is 3910 fluorescence intensity (a.u.); as for “GGTAATTAAAGGGGTGTTTATATCTCGGTTGTAAAGGGTTCGGAGTCACCTAGTGCAG”, 13000 fluorescence intensity (a.u.).

As to “GACCGACCCTGCTAACTAAATTAATTTTACATTTCCTTCACGGAGTCACCTAGTGCAG”, the binding signal was 5990 fluorescence intensity (a.u.). With “GCAGTATGATTAGCTTCAGAGCAACAATAAACCAGATGCTCGGAGTCACCTAGTGCAG” the figure was 13700 fluorescence intensity (a.u.). On to “TTTACAACTAATTATTCTTTCAGTGGTAGACAACGTCGTCCGGAGTCACCTAGTGCAG”, for which the binding signal was 9430 fluorescence intensity (a.u.).

In the case of “CTAATCAATAGACTGAAATTTGAACTATTTGTATCCATCCCGGAGTCACCTAGTGCAG”, the binding signal is 14000 fluorescence intensity (a.u.). As for “TTATGACCGGTTTTGATTAGTTAAGAGACGCCAGATATCTCGGAGTCACCTAGTGCAG”, the figure is 14300 fluorescence intensity (a.u.).

With “TATGGTCTGATTATTTGTCAGTACTTTGGATACACCAATTCGGAGTCACCTAGTGCAG”, the binding signal was 3480 fluorescence intensity (a.u.). With “GCCGGTACATGAACCACATGATTGATTCCCCTCTTCCGCTCGGAGTCACCTAGTGCAG” the figure was 17500 fluorescence intensity (a.u.). With “CACCGATAATTGCGATATCTTATCATGTTACATCGCACGGCGGAGTCACCTAGTGCAG” the figure was 24300 fluorescence intensity (a.u.); with “CCTTTAAATTAGATTTCTTAGCATGTGTTCGTTATGTGTGCGGAGTCACCTAGTGCAG”, 38300 fluorescence intensity (a.u.). As for “ATGGGTCTGTCAATGAATTTTGACAAATCCTAAACGAAATCGGAGTCACCTAGTGCAG”, the figure is 5590 fluorescence intensity (a.u.); as for “ATTAATTAGGTTTGATCTCTTTAAAACAATTCCTCCTTCCCGGAGTCACCTAGTGCAG”, 24000 fluorescence intensity (a.u.); as for “GTAAATTGCGAGATGAATTTATTAAGCCTAATTAATCTGTCGGAGTCACCTAGTGCAG”, 26000 fluorescence intensity (a.u.). For the sequence “ATATAAAATTTACAATGTAATATATGGAATTTATAGTGTACGGAGTCACCTAGTGCAG”, the binding signal is 4140 fluorescence intensity (a.u.). With “TTAATATTTAATTAATTATATATTAATGGCTTACCTTATTCGGAGTCACCTAGTGCAG”, the binding signal was 27500 fluorescence intensity (a.u.). With “GGAAACTGACGCATCAGATTTGGAGACTAGCAATGGAGTACGGAGTCACCTAGTGCAG” the figure was 3600 fluorescence intensity (a.u.); with “AACAAACAACTCAATTTATTTATCTTGTCATACGGCAATCCGGAGTCACCTAGTGCAG”, 3570 fluorescence intensity (a.u.); with “TAGTAATTAAAACACAATTAATCATGCGCTAATAGCTTCCCGGAGTCACCTAGTGCAG”, 29000 fluorescence intensity (a.u.). As for “GTACCAATCGTCTCATCATGATCTAAGCCAAATCTAAACACGGAGTCACCTAGTGCAG”, the figure is 4310 fluorescence intensity (a.u.); as for “AAGCTAAATTAACTGAAAGTATCACATTAACTCGTAATTTCGGAGTCACCTAGTGCAG”, 22300 fluorescence intensity (a.u.); as for “AAATGATTGCATCACATTGACAAAATTGATAACGTATACACGGAGTCACCTAGTGCAG”, 32100 fluorescence intensity (a.u.).

As for “AAAACCAGGTAATTAATTAAAAGCACATTTCGTGCGGTGGCGGAGTCACCTAGTGCAG”, the binding signal is 13800 fluorescence intensity (a.u.).

Regarding “CTTAACTGAATAAACTGCCTGACTTTGGGACAATAGGTCACGGAGTCACCTAGTGCAG”, the binding signal is 39300 fluorescence intensity (a.u.).

As to “AATCGTGACAGGTGATTCCACCAGCCGATCTTGACCGTTGCGGAGTCACCTAGTGCAG”, the binding signal was 7030 fluorescence intensity (a.u.).

On to “CGTGGCCTCGCCGTATCAATCACGAGAAGGGGAGAAAAGTCGGAGTCACCTAGTGCAG”, for which the binding signal is 3860 fluorescence intensity (a.u.).

Regarding “CATCTGATTACAACTATATAATCCAATCTGCTTAATAAAGCGGAGTCACCTAGTGCAG”, the binding signal was 19200 fluorescence intensity (a.u.). As for “GGTGGTTAAATACTCATCTTGATTGATTATCCTTTTCTTACGGAGTCACCTAGTGCAG”, the figure is 18600 fluorescence intensity (a.u.).
